In the RNAGym collection of RNA variant scans (doi:10.7554/elife.90254):
Read counts are not given, so values of variants with three or more changes are uncertain.

B1: LINE1-full (parent)
chain: UACGUAGGUGGUUUUCCCCUGAUAGUGCUAAGGGGGCCUGGAAGUUUGGACUGGGCAGAGCUCAACACAGCGUGGCAAAGUGGCUGUGGCUAGACUGCCUCUCUGGAUUCCUCGUCACUCAGCAGGGCAUCUCUGAGAGAAAUGCC

Variants of: B1
Assay: self-cleavage, relative activity (ratio to wild type); higher = more cleavage; in vitro, sequencing; the parent is a self-cleaving ribozyme

Variant	self-cleavage
A6U G35C U102C	1.74
A57G A65G C68U U73A A94G	0.05
U47A A117G U143G	2.8
U9A U62G A107G	0
U46C A69G U87A	0
G36C U45C U108C A140G	2.15
U12A U39C U73A A107G G114A	1.3
U9C U14G A141G	1.2
U15C A31U U47A A64G U73C	0
A42U U85C G114A	0.1
A6G U62C A140G	0.4
C3U U39C A121G	0.61
U13C A42G A65G	0
G40A A129G A138U A140G	0.8
G27A A50G A138G	0.37
A2U U62C A77G	0.25
U9C U39C A59U A69U	0
A42C U81A U91A	0.96
U20C U87A A138U	0.07
U15C C28G U81A U134C U143A	1.06
U81A U102A A141G	2.08

Variant	self-cleavage
U26C A65G A138U	0.11
U47C U52A U73C U115A	0.88
U13C U26C G27A	1.03
A6G A78G G125U	1.08
A92U U100C A117G G125U	2.12
A24G U29C G32A U143C	0.58
U1A G86A A121G U130A	0.08
U15C C19U A30G U85A U130C	0.09
A50G A57G A59U G75A	0.41
U46C U119A U130A	0.59
U14C U52C A138G	1.25
U45C A79G G114A	1.78
U9G U91C G105A U130A	0.24
U1C U47C G82A	1.71
U62A U91C U108C	0.09
A24G A79U U119C A121G	0.77
A2G A22U A79U G83A U134A A140G	0
A50C G89U U109C	0.05
G82A U132A U134C	2.05
U45A U115C A129U	2.06
G105A U115C A121G	1.98

Variant	self-cleavage
A64G C68G A94U U112C	0
U9A U81A U102C U104C	0
A2G A43G U62C A107U A141G	0
U62C A65G A79G	0
U14C G36A A78C G80C A94C U104C	0.09
U23C A30G U39C A64G G97A	0.26
A43G U62C A64C C71A A138U U143A	0.04
U39G C118A A124G	1.09
C66U U87A U91C A142G	0.01
U26C A64G U96C	0
A22U A42G A77U U102C	2.16
G4A G10U C95U A129G	0.14
A2U U12A U13G U96C A138G	0
A2G A94U U100C A107U	0.26
A64G U73C U134A	0.3
U9A A24U U96C	0.64
U12C U29A U143C	1.38
U12C G21A G53A	1.75
U1C A24U A77G A117U	0.67
U26C G32A A67G C99U U115C	0.32
A57U U109G U119C	0

Variant	self-cleavage
U14C U20C U39A A77G U115C	2.76
U20C G40A U52C	1.62
G48A U62C A64U U143C	0.02
A22U G97A U100C	0.33
U23C A42U U112C	0.58
U12C U13A A22U U52A A136U	1.38
U9C U15C A77G U87A U134G	0.16
U1C A117G C120U	1.5
U9C U47A U81A U112C	2
A22G G74A U104C	1.28
U12C G93A C103A	0.1
U45C A57G C66U A141G	0.07
U96C A140U A142C	0.04
U9A A67U U87C A140G	0
U20A A64U A79G	0.18
A69U U73A U102C	0.06
A22G C76U A129G	1.88
U5C U26A G36C A67G	0.68
U14C G88A U112C U119C	0.08
U62C A94G A140G	0
